In the RNAGym collection of RNA variant scans (doi:10.1093/nar/gkz1192):
Read counts are not given, so values of variants with three or more changes are uncertain.

B1: CPEB3 Ribozyme (parent)
chain: UAACAGGGGGCCACAGCAGAAGCGUUCACGUCGCAGCCCCUGUCAGAUUCUGGUGAAUCUGCGAAUUCUGCUGUAUAUCUC

Variants of: B1
Test: self-cleavage, relative activity (ratio to wild type); higher = more cleavage; in vitro, sequencing
How it was run: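 Barcoded CPEB3 ribozyme mutants, produced by rounds of error-prone PCR, self-cleaved while being transcribed with T7 RNA polymerase for 5 hours at 37°C and during a subsequent 15 min DNase I step before EDTA was added. Sequencing of template-switched cDNA on Illumina gave cleaved and total reads, and DNA sequencing assigned barcodes to variants. Each variant's relative activity is its cleaved/total read fraction divided by the unmutated ribozyme's fraction, averaged across three batches. A variant needed a minimum of 5 reads.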

Variant	self-cleavage
G36A U51C G61A U69A	0
A35U U41C U43A U60C G70U	0.17
A35U U41C A45C A75G A77G	0.07
A35U U54C U69C	0.13
A35U U43A U67C U74C U80A	0.04
A35U U66C U72C	0.21
A35U U54C A77U	0.41
A35G U41C U43C A64G	0.91
A35U U41A A65C U67G	0.1
A35G U51C U54A G73A U74C A75G	1.24
A35G U43G U58C A65G U80C	0.24
A35U U49A U66C U80G	0.06
A35G U49C A75G	1.03
C37G U49C U54C	0
A35U C38A U48C	0.12
A35G U48A U66C	0.43
C37A A47U U54G	0.15
A35U U43C A56G C71G U78C C81U	0.04
A35U U41C A47G U76A	0.53
A35U A45G A47G U48C U72A	0.12
A35U U51A U76A	0.63
A35U C38U U49A	0.2
A35G U54C A64U U74C U78C	1.19
A35G U78C C79U	1.29

Variant	self-cleavage
A35U A65G U66A G73A	0.14
A35U U66C C71A U72A A77G	0.07
A35U U43C U69A G70U U76C	0.29
G36A A64G U69C U80C	0.15
A35G U51C C62A A65U	0.39
A35G U51A A65G U78C U80C	1.15
A35U U43C U60G A64G	0.16
A35U A56U A64G U78C	0.13
C37A U41A U43C A56G	0.16
G36A U49C U51C A56G A75G A77G	0.27
A35G U48A U78C	0.95
A35G U48A U78A	1.24
A35U A64G A65U	0.22
A35G U41G U49C	0.14
G36A U41A U51C U74C	0.17
A35G U48C U58C	0.57
G36A A47G A64U	0.21
G36C A45G U72C U78C	0.13
A35G U51A U66C U72G U78C	1.15
A35G U51G U58C U67A U69A	0.81
A35G U41C U58C A64G	0.79
A35G U51C U74G	1.3
A35G U49C U67C U74C	0.33
A35G U43C U69C	0.84

Variant	self-cleavage
A35U A56U U69G	0.09
G36A U41C U66C	0.37
C37G U60C G61U A77G	0.13
G36A G42U A45G	0.32
A35U U41A A57C	0.11
A35U U60A A65U U66C A75G	0.11
A35U A47G U54C A56G	0.24
A35U U66C U67A U74C U80C	0.18
C37A U74A U78C	0.12
C37A G70C U72C	0.12
A35G U43C A45G U48C G53U U69C	0.43
A35G U48C U60A A64G	0.39
A35U A77U U78A	0.67
A35U A45G U54C	0.21
A35G U51C U69C G70A	0.67
A35U U49A U60C	0.19
C37A U43C U54C	0.16
A35U U49A A57G	0.46
A35U U41A A45C G70A C71G	0.06
A35U A47G U54C U60C A77G	0.12
G36A U58C U69A	0.08
C37A C39A U60A U69A U72C	0.17
A35U A45G U72C U74C	0.18
A35G U51G A57G	1.29

Variant	self-cleavage
A35U U49C C59A	0.09
A35G U48C A65G	0.73
C37U A47G U60C	0.16
A35U C62U C71A	0.08
G36C U54C A57G U58A	0.1
A35G U48C G61A U74A	0.93
G36A U41A A77G	0.11
A35U A45G U48C U67C	0.11
A35G U41C U54A A64U	0.87
A35U A65G U78C	0.12
A35G U43C U76C	1.17
A35U A75G U80G	0.43
G36U C38G U41G	0.24
A35G U41C U48C U74A	1.26
A35G U74C A77G	1.31
A35U U43C U66A	0.17
A35G U43C U48C U54A	1.17
A35U U41C G55C A65G	0.1
A35U U60C A64G U74A	0.09
C37A U51C A57G A64G U74A U80C	0.05
A35U C62U U76C	0.08
C37G U41A C44A U80C	0.09
A35U A45G U60A U69A	0.13
A35U U43C A77U	0.15

Variant	self-cleavage
C37A A45G U48C U60A A65U	0.09
A35G U43A U49C G55C U80C	0.72
A35U U48A U69C C81U	0.1
A35G U43A U74C	1.3
A35U U51A A57U U58C	0.35
A35U G36U A45G U54C U78A	0.06
C37G U51C U69C	0.21
A35U U41A U54C	0.52
A35G U48C A64G U74C	1.08
A35U U49C A64G U69C	0.09
A35G U51C A57U C62U U78A	0.34
A35G U41C U43G A64U U80A	0.16
A35U A57G U69G U72C	0.13
A35G U51A A64U U67C	0.3
A35G U43G U54G	0.11
A35U U41C U43A G46U	0.17
A35U A57G U58C C59A U72C	0.09
A35U U43A A45U U78G	0.37
A35U U41C U49G	0.33
C37G U49C U80C	0.3
A35U U48C A57G	0.64
A35G U51A A56G U66C	1.09
A35U G52A U60C A64G A75U U76C	0.12
A35U U58C A65G A77G	0.1

Variant	self-cleavage
C37A U51C U58A	0.11
A35U U41C U67C	0.11
A35U U43C U54A A56G	0.38
A35G U43C U58A	0.29
A35G U43A U48C	1.13
G36A U41C U43C U51A U54A	0.2
A35G U78C U80A	1.32
A35G U43C G53U A57G	1.28
A35G U48C U60A U67C	0.35
A35U A45G U51G U54C U80C	0.21
A35U A47U U80C	0.47
A35U U67C U72A	0.1
G36A C40U U60A	0.1
A35U U41C U49G A64G	0.22
A35U U49C U69C A77G	0.08
G36A A45U U66C	0.04
A35G U54C A77U	1.28
A35G U78A U80C	1.22
A35G U43A A77G	1.28
A35G U51C A56G U69C	1.21
A35U U43C G52A	0.36
C37A C44U A45G U60A	0.14
A35G U51C C62A A64U	0.46
A35U C38U U72A	0.39

Variant	self-cleavage
C37A A56G U72C	0.11
A35U G52A A77G	0.6
A35U A45U A56G U58C A65G	0.18
C37U A56U U60C U80A	0.12
A35G U49A U51C U67C	0.98
G36A U43C A57G U66C	0.14
A35U A45U U51A	0.15
A35U A45G U67C U72C U78C	0.16
A35U U49A G53A	0.2
A35U A56G C62U G73U	0.32
A35U A45G U66G	0.38
A35G U72A U78A	1.26
A35G U43C A47G U58C U69C	0.89
A35G U41C U72C	1.23
C37G C40A G42U	0.07
A35U A47G A64U U76C U80C	0.15
A35G U43A U51A U54C A56G U72C	1.19
A35U A47G G73A	1.22
A35U A45G U69C	0.15
A35U A57G U60G	0.08
A35U A57G U60A	0.14
A35U U41C U58C A64G A75G	0.07
G36U A57G U76C	0.14
